# Test results: the supplement of paper PMC11417369
# ± gives the standard deviation of the averaged measurements. The list shows a part of the results.
# System: PfAP2-G AP2 domain (GST-tagged)
# Experiment: gcPBM binding intensity (ln(normalized median fluorescence intensity)); higher = stronger DNA binding
# Summary of the method: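 GST-tagged P. falciparum DNA-binding domains produced in E. coli were incubated for 1 h on an Agilent 4 × 180k array of primer-extended double-stranded 36-bp intergenic genomic probes with negative controls. Binding intensity is the highest Masliner-normalised natural-log median intensity across replicate spots of either probe orientation, with bound protein detected by Alexa488 anti-GST antibody at 488 nm.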
row,Sequence,gcPBM binding intensity (ln)
1,AATGAAAAATTGTAATGTACATAAATAAATAAATAA [XGTACX_site4048],11.1 ± 0.48
2,ATCATAATTTATTATACACACAATACGTGACCTATT [CACACA_site6977],10.6 ± 0.42
3,TATTCATGCATATACACACACATATATATATATTTT [CACACA_site3955],10.025 ± 0.007
4,ACCACCATATAACATACATGCATCTTTTTTCCCTTC [TGCATGCA_site583],10.11 ± 0.057
5,GAACTCATTTAATATTGTACATTCTGATATTTTTTA [XGTACX_site5995],10.6 ± 0.22
6,AAAAATAAAACAATTACACACATAACTTTATTTTTA [CACACA_site6563],9.97 ± 0.071
7,AAAAGCTTAAAAAATTGTACATAAATGAATAAATAT [XGTACX_site5201],11 ± 0.71
8,ACAAATGGAACTCCTACAAAAAATTTCCATAATATT [XGTACX_negctrl_site132],10.1 ± 0.2
9,TAAACCTATTATACGGGTACTTATTTGATTCTTATA [XGTACX_site5292],11 ± 0.66
10,GTATAAAATATTGATTGTACTTTATTCATTTTTTTT [XGTACX_site2520],11.2 ± 0.91
11,TCATATTCCAAGTGTACACATAAATCCCTAATAACA [CACACA_site5167],11.7 ± 0.94
12,TCATTGTTTAATATGTGTCCTCAAAATTTGTTATAT [XGTACX_site677],11.2 ± 0.76
13,TATATACATACATATACACACATATATATATATATA [CACACA_site401],10.1 ± 0.12
14,TCTTGTTAATATATTAAATATATCTATAAATATATA [XGTACX_negctrl_site486],9.815 ± 0.021
15,CATTTAGTTCATACTATGCACACTACGTATATTTTT [CACACA_site2694],10.19 ± 0.042
16,AATGCACAGCTCTTAGGCAAAAGTGGGTATTTACAC [GTGCAC_negctrl_site579],10.4 ± 0.33
17,TGTATAAAAAACTAATGTACAAATGACAAGATATCT [XGTACX_site4600],10.7 ± 0.29
18,ATTTTTTTTTTTTAATTTGATATTTGCGTTTATATA [CACACA_negctrl_site1305],9.665 ± 0.007
19,ACAATTCATTAGAATTGTACAAAAGGATGAAGCGAA [XGTACX_site5242],10.8 ± 0.4
20,ATTTAATACAAATACACACACAAATATGTACCTATA [CACACA_site7718],11.2 ± 0.77
21,AATATATGATAATTTTTTTTTTTTTTTTTTAAATAT [CACACA_negctrl_site452],9.53 ± 0.12
22,TGTGTTAGCAAAAAAGTGCACAGGGAAAAAAAAATA [GTGCAC_site9397],10.6 ± 0.46

row,Sequence,gcPBM binding intensity (ln)
1,ATGATATTATAAAAAAGTACATATGTATATAATTAT [XGTACX_site7652],11.4 ± 0.75
2,AAAAAATGTTAAAAAAGTACTTTCTTTATTTAATAA [XGTACX_site2908],11.1 ± 0.65
3,AACAATTGTTAAAGGTGTACCATATGTATATAAGAA [XGTACX_site5723],11.2 ± 0.77
4,GTATATATGTATATATGTACATATATATAATATATT [XGTACX_site56],11.1 ± 0.58
5,TAAAACATATATACAAGTACACAAAGGATATATATA [XGTACX_site3710],11.4 ± 0.95
6,CAGTGCCAAATTAGCACACACATATATACATGAATT [CACACA_site2814],10.1 ± 0.16
7,TATAGGTATTTATATACACACATATTCTTTTTACAC [CACACA_site6686],10.1 ± 0.16
8,AAGCCCATTATTAAATGTACAAAATTTTATAAACTA [XGTACX_site7800],10.7 ± 0.45
9,ATATATATATATATATGTACTTATTACCAATGTTAG [XGTACX_site1896],11.2 ± 0.79
10,TTTTGTTATGGTTTGATGCACTTATATATAAATATT [GTGCAC_site9705],10.3 ± 0.19
11,ATGTAGATAAAACGTGTGCACATGTTTTTTGTTATT,10.3 ± 0.11
12,CACAGTGATATAAAAACACACATGAATTATAATTTC [CACACA_site1667],9.95 ± 0.16
13,TTTGGAAAAAAATTATTTAAACGATATGAATTGATG [XGTACX_negctrl_site506],9.935 ± 0.064
14,AAAATTTTACAGAAGGTGCGTATATTTTCCTGCTTA [GTGCAC_site9643],10.1 ± 0.13
15,ATTTAAATACAAAATTGTACTTTTCTATATTTAACA [XGTACX_site6146],11.3 ± 0.64
16,ACCCATTTAACAAAATGTACATTATTATAATTACTT [XGTACX_site7105],10.9 ± 0.54
17,AAATTTTAAATAGTATGTACGTATGAAATATATATG [XGTACX_site7511],11.4 ± 0.79
18,TGAACTTACTTGGACATACACACATATATATATATA [CACACA_site2977],10.8 ± 0.53
19,TATATATATATACCAACACACATACAGATATATATA [CACACA_site5060],10.1 ± 0.25
20,TTTATATACAAAAATGCACACGAAAAGTAATATATA [CACACA_site9387],10.28 ± 0.049
21,TGTAAGTCGTTATAAGCACACACATAAATAAAAATA [CACACA_site8448],10.2 ± 0.18
22,TACAATATTTTGAGACGTACATATATACATTTACAT [XGTACX_site5880],11.4 ± 0.95
